PubChem BioAssay AID1508624 (National Center for Advancing Translational Sciences (NCATS), 2021)
Out of some 48,000 compounds screened, about 120 (0.25%) were called active. Inconclusive results (about 4%) are left out. Calls follow the shape of the dose curve; as a rule, active = well fitted activation curve with a large enough effect; inconclusive = small, poorly fitted or top-dose-only effect, or another doubt; inactive = no such curve, though single readings can be large or run the other way. The list shows a part of the results.

Experiment: Primary qHTS for Identification of Small Molecule Activators of Huntingtin-Antisense Promoter Activity; also: nearly all actives have a fitted effect of over 55% in size
Details: HEK293 HTT-AS promoter firefly luciferase reporter, 24 h; series mostly up to 57.5 µM; activity change, positive = activation: at the top concentration
In short: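 Firefly luciferase signal from promoter-reporter HEK293 cells was scaled between vehicle (0%) and zero RLU (-100%). Compounds were tested at final concentrations of up to 57.5 uM over 24 h at 37 degrees C. PTC124 at 50 uM final served as control inhibitor.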

Activity change, positive = activation, inactive:
CC(=O)N1CCc2cc(CNS(=O)(=O)c3ccccc3C(F)(F)F)ccc21 -2.42%
Cc1nn(CC(=O)NCc2ccco2)c(=O)c2nn(-c3ccccc3)c(C)c12 15.9%
CCOc1cccc(C2Oc3nc(SC)nnc3-c3ccccc3N2C(C)=O)c1OC (stereo not drawn) 1.48% [at 11.5 µM, percent change from vehicle, -100% = no light]
Cc1cc(C)cc(NC(=O)Cn2c(C)cc(C)c(C#N)c2=O)c1 -3.66%
O=C(CSc1nc2ccccc2n1Cc1cccc(C(F)(F)F)c1)NCc1ccccc1 -17.5%
O=C(O)c1ccc(CSc2nc3cccnc3n2Cc2cccc(F)c2)cc1 -8.98%
CC(=O)Nc1ccc(NC(=O)c2c(-c3ccccc3)noc2C)cc1 -11.4%
Nc1ncc(S(=O)(=O)N2CCN(c3ccccc3)CC2)cn1 -14.7%
COC(=O)CC1Oc2ccc(Cl)cc2-n2cc(-c3ccc(C)cc3)nc21 (stereo not drawn) -16.3%
O=C(CSc1nc2c([nH]c3ccccc32)c(=O)n1-c1ccc(F)cc1)Nc1ccc2c(c1)OCO2 -37.7%
Cc1ccc(S(=O)(=O)C(CNC(=O)C(=O)NCCc2ccc(F)cc2)c2cccs2)cc1 (stereo not drawn) -40.1%
COc1cc(NC(=O)CSc2ccc(-c3sc(C)nc3C)nn2)cc(OC)c1 -32.6%
COc1ccc(Cl)cc1NC(=O)c1oc2ccc(S(=O)(=O)N3CCCCC3)cc2c1C 15.2%
COc1ccc(N2CCN(C(=O)c3ccc(CS(=O)c4cccc(C)c4)o3)CC2)cc1 (stereo not drawn) -23.1%
CCN(c1ccc(C)cc1C)S(=O)(=O)c1nnc(NC(=O)c2ccc(F)cc2)s1 -47.4%
CCN(Cc1ccccc1)C(=O)CN1C(=O)COc2ccc(S(=O)(=O)N3CCOCC3)cc21 -4.24%
CC(C)CNc1ccnc(NCc2csc(-c3ccccc3)n2)n1 -89.5%
Cc1ccc2oc(=O)c(-c3nc(-c4cccs4)no3)cc2c1 10.5%
Cc1nn(CCC(=O)Nc2cccc(C#N)c2)c(C)c1S(=O)(=O)N1CCC(C)CC1 -25.4%
COc1ccc(-n2cnc3cc(C(=O)NCCC4=CCCCC4)ccc32)cc1 -0.11%
COC(=O)c1ccccc1NC(=O)Cc1nc(-c2ccc(OC)cc2)no1 -24%
COc1cc2c(Nc3ccc(NC(=O)c4ccccc4)cc3)ncnc2cc1OCCCN1CCOCC1 -15.5%
COc1ccc(OC)c(NC(=O)CN(c2ccccc2OC)S(=O)(=O)c2ccc(C)cc2)c1 -32.3%
O=C(Nc1cccc(C(=O)OCc2cc(=O)n3ccsc3n2)c1)c1ccc(F)cc1 16%
Cc1csc2nc(COC(=O)c3ccc(NC(=O)c4ccccc4Br)cc3)cc(=O)n12 -31.3%
CCOCCCNC(=O)CCC(=O)NNc1nc2ccccc2c2nc(C)nn12 -6.38%
Cc1nc2nc(SCC(=O)NCCc3ccc(Cl)cc3)nn2c(C)c1Cc1c(F)cccc1Cl -19.5%
Cc1ccc(NC(=O)C2CCCN2S(=O)(=O)c2ccc3c(c2)n(C)c(=O)c(=O)n3C)cc1 (stereo not drawn) -6.11%
N#C/C(=C\c1ccc(-c2ccc(Br)cc2)o1)C(=O)Nc1ccccc1O 0.497%
Cc1ccc(-n2ncc3c(N4CCN(Cc5ccccc5)CC4)ncnc32)cc1C 0%
COc1cc2c(NC3CCN(C(C)C)CC3)nc(C3CCCCC3)nc2cc1OCCCN1CCCC1 3.95%
Cc1oc(-c2ccccc2F)nc1Cn1c(SCc2cccc(Cl)c2)nc2ccncc21 -13.5%
CCOCCc1nn2c(=O)cc(COC(=O)c3ccccc3Br)nc2s1 -6.1%
O=C(NCCc1csc(-c2ccc(C(F)(F)F)cc2)n1)c1ccccc1Cl -30.8%
Cc1ccc(CNC(=O)C(=O)NCC(c2cccs2)S(=O)(=O)c2ccccc2)cc1 (stereo not drawn) -15.8%
CCCn1c(=N)c(C(=O)NCc2ccccc2)cc2c(=O)n3cccc(C)c3nc21 5.29%
CC(Cc1cccc(C(F)(F)F)c1)NCCOC(=O)c1ccccc1 (stereo not drawn) -5.89%
Oc1c(C(c2cccc(Cl)c2)N2CCOCC2)sc2nc(-c3ccco3)nn12 (stereo not drawn) 1.63%
CCN1c2ccccc2-c2nc(SCC(=O)Nc3cc(C)c(Cl)cc3OC)ncc2S1(=O)=O -15.5%
O=C(COc1ccc(F)cc1)NCc1ccc2c(c1)CCN2C(=O)c1ccc(F)cc1 -10.9%
COc1ccc(CCNC(=O)c2c3c(nc4ccccc24)C(=O)N(C2CCCCC2)C3)cc1OC -16.7%
O=C(Nc1ccc(F)c(Cl)c1)C1CCN(c2ncccn2)CC1 -18.2%
Cc1cc(-n2c(C)nc3ccccc3c2=O)ccc1NC(=O)c1cccc([N+](=O)[O-])c1C -8.99%
Cc1cccc(OCC(=O)Nc2ccc(S(=O)(=O)N(Cc3ccccc3)c3ccccc3)cc2)c1 -13%
COC(=O)c1ccccc1NC(=O)C1CCCN(C(=O)c2cnn(-c3ccc(F)cc3)c2-n2cccc2)C1 (stereo not drawn) -7.68%
COCCn1c(=O)[nH]c2cc(C(=O)N3CCN(c4ccc(F)cc4)CC3)ccc2c1=O -22.9%
Cc1cc(Br)cc(C)c1OCC(=O)Nc1ccc(S(=O)(=O)Nc2ncccn2)cc1 -13.9%
CCOC(=O)c1cccc(NC(=O)Cn2cnc3nc4c(cc3c2=O)CCCC4)c1 0.522%
CCN(CC)CCCNC(=O)c1ccc2c(c1)NC(=O)C(CS(=O)(=O)Cc1ccc(F)cc1Cl)N2 (stereo not drawn) -4.45%
COCCNC(=O)c1sc2nc3n(c(=O)c2c1C)CCC3 -6.26%
COc1ccc(N2CC(c3nc(-c4ccccc4C)no3)CC2=O)cc1Cl (stereo not drawn) -9.98%
CCc1ccc(NS(=O)(=O)c2ccc3[nH]cc(C(=O)NCCc4ccccc4)c(=O)c3c2)cc1 14.1%
CCNC(=O)NCCCOc1cccc(CN2CCCCC2)c1 -29.6%
Cc1cccc(CNC(=O)C2CCN(S(=O)(=O)c3cccc4nonc34)CC2)c1 -6.94%
CCCC(=O)OCc1cnc(C)c2oc(=O)c(C(=O)Nc3ccc(F)cc3C)cc12 -12.7%
C[C@@]1(C(=O)Nc2ccc(F)nc2)CCCN1c1nc(Nc2cc(C3CC3)[nH]n2)c2cccn2n1 -45.8%
COc1ccc(-c2noc(CNC(=O)c3ccc(OC)cc3OC)n2)cc1 -15.7%
CCC1=Nc2cc(C(=O)N3CCC(C)CC3)ccc2Sc2ccc(C)cc21 -13.7%
CCOc1ccc(CCNC(=O)C2CC(=O)N(CCc3ccc(OC)c(OC)c3)C2)cc1OCC (stereo not drawn) -1.81%
CCOC(=O)c1c(NC(=O)COc2ccc(OC)cc2)sc(C(=O)N(CC)CC)c1C -58.1%
CCCCN(CC)CCNC(=O)c1nn(-c2ccc(OC)cc2)c(=O)c2c1c1ccccc1n2C 0.112%
N#C/C(=C\c1ccccc1)c1nc(-c2cc3c(ccc4ccccc43)oc2=O)cs1 -6.04%
COC(=O)/C=C(/C)N -0.792%
CCN(CC)c1ccc(NC(=O)C2CCCN(S(=O)(=O)c3ccc4c(c3)oc(=O)n4C)C2)c(C)c1 (stereo not drawn) -35.8%
CCC(Sc1nc2n[nH]c(C)c2c(=N)n1-c1ccc(Br)cc1)C(=O)N(CC)CC (stereo not drawn) -48.7%
COc1ccccc1CSc1nc2n(n1)C(c1ccccc1)C(C(=O)Nc1ccc(C)cc1)=C(C)N2 (stereo not drawn) -26.4%
Cc1ccc(NC(=O)C2CCCN(S(=O)(=O)c3ccc(C)cc3)C2)cc1 (stereo not drawn) -12.2%
CCOC(=O)c1c(S(=O)(=O)N2CCN(c3cc(Cl)ccc3C)CC2)c(C)n(C)c1C -23.5%
COc1ccc(NC(=O)Cn2ncc3c4ccccc4n(Cc4ccccc4)c3c2=O)cc1OC -0.703%
COc1ccccc1-c1ncnn1-c1sc2c(c1C#N)CCCCC2 21%
COc1cc(NS(=O)(=O)c2ccc3c(c2)OCC(C(=O)N2CCCC2)O3)cc(OC)c1 (stereo not drawn) -51.8%
Cc1ccc(NC(=O)Cn2nc(-c3ccc(Cl)cc3)c3ccccc3c2=O)cc1 -9.28%
Cc1ccc(-c2onc(C)c2C)cc1S(=O)(=O)N1CCc2ccccc21 -62.4%
COC(=O)c1ccc(NC(=O)C(c2ccccc2)N2Cc3ccccc3C2=O)cc1 (stereo not drawn) 12.6%
Cc1cccc(CCNC(=O)CCc2c(C)nc3c(-c4ccc(F)cc4)c(C)nn3c2C)c1 -7.23%
CN1CCN(c2ccc(-c3nc(-c4ccccc4)no3)cc2[N+](=O)[O-])CC1 -90.4%
Cc1nc(-c2ccc(Cl)cc2)sc1CCNC(=O)C(=O)Nc1ccccc1C#N -8.11%
COc1ccc(N2CCN(C(=O)c3cc4c(s3)-c3c(C)cccc3OC4)CC2)cc1 -4.06%
Cc1cc(C)cc(NC(=O)C2CCCN(c3nnc(-n4c(C)ccc4C)s3)C2)c1 (stereo not drawn) -16.7%
CCCc1ccc(OC(=O)c2sc3ncn(Cc4cccc(F)c4)c(=O)c3c2C)cc1 -17% [at 11.5 µM, percent change from vehicle, -100% = no light]
COc1ccc(NC(=O)Cn2c(SCc3c(F)cccc3Cl)nc3ccncc32)cc1OC -4.75%
COCCn1c(SCC(=O)Nc2ccc(Br)cc2)nc2c([nH]c3ccccc32)c1=O -8.13%
CCCCN(C(=O)Nc1ccc(OCC)cc1)C1CCN(C(C)=O)CC1 0.17%
CSc1ncc2c(n1)-c1ccccc1N(Cc1ccccc1C)S2(=O)=O 23.3%
COc1ccc(-n2c(=O)c3c(c4cc(OC)ccc4n3C)n(Cc3c(F)cccc3Cl)c2=O)cc1 -3.73%
COc1cccc(CCNC(=O)c2cnc3sc(N4CCCC4)nn3c2=O)c1 -22.9%
Cc1cccc(-n2c3nc(=O)n(C)c(=O)c-3cc3c(C)nn(-c4ccccc4)c32)c1C -6.62%
COC1(C(F)(F)F)NC(=O)N(c2ccc(F)cc2)C1=O (stereo not drawn) -6.93%
COc1ccc(Cl)cc1NC(=O)N1CCC2(CC1)Oc1ccccc1C(=O)N2Cc1ccc(F)cc1 -19.1%
CSc1nc2sc3c(c2c(=O)n1-c1ccc(C)cc1)CCCC3 -18%
CCOC(=O)c1cnn(-c2cccc(Cl)c2)c1C1CCN(C(=O)OC(C)(C)C)CC1 -2.95%
Cc1ccc(OCCSc2nc3ccc(NC(=O)COc4ccc(C)cc4)cc3s2)cc1 -7.85%
CCOC(=O)C1=C(CN(CC)Cc2ccccc2)NC(=O)NC1c1ccc(Cl)cc1 (stereo not drawn) -30.5%
